In publication PMC4336329 (PLoS ONE, 2015):
Out of some 310,000 compounds screened, about 2,200 (0.71%) showed an effect of 50% or more. Effects have a minus sign here. This is one part of the list.

Each compound was assayed against human ether-à-go-go-related gene (hERG) potassium channel (human, UniProt Q12809) (assay: primary screen, population patch clamp on CHO cells stably expressing hERG).
human ether-à-go-go-related gene (hERG) potassium channel, sequence (Q12809 whole entry, looked up): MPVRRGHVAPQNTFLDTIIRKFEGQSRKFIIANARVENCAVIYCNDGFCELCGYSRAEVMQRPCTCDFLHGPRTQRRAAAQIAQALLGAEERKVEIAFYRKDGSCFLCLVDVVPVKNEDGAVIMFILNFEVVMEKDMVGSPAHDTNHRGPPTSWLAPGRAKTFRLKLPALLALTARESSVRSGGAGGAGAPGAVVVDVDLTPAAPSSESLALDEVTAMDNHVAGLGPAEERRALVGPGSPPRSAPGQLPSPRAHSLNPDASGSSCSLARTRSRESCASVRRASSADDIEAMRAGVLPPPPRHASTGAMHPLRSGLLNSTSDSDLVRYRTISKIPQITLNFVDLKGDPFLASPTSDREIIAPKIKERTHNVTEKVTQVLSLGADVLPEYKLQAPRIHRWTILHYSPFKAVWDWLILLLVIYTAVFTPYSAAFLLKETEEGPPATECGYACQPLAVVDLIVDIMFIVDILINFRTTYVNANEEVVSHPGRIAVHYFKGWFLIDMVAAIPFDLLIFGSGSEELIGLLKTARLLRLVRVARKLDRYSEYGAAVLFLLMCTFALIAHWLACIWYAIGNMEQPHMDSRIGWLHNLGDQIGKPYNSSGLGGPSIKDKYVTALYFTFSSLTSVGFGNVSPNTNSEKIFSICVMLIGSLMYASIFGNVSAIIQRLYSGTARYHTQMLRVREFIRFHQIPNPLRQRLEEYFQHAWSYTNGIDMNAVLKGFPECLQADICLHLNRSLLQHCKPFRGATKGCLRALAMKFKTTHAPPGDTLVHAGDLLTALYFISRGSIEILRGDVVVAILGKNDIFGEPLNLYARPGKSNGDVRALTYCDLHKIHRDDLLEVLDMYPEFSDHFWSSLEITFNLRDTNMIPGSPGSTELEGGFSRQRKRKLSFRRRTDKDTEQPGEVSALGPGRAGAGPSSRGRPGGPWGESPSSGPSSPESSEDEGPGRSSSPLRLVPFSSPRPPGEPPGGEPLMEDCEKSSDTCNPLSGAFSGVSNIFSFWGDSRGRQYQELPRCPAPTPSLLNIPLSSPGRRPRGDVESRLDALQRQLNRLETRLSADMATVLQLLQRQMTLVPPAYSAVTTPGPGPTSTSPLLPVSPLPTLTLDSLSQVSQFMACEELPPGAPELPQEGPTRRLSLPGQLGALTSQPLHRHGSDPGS

Row | Compound | hERG current change (%, negative = inhibition) at 1uM [%]
1 | CCC(C)(C)NC(=O)C1CCC(CNS(=O)(=O)c2cccc3nsnc23)CC1 (stereo not shown) | 7.14
2 | Cc1ccc(N2C(=O)NC(=O)/C(=C\C=C\c3ccco3)C2=O)cc1 | 19.4
3 | O=C(CS(=O)(=O)Cc1ccccc1)Nc1nnc(C(F)(F)F)s1 | 16.8
4 | CC1CN(C)C(C)c2c1oc1ccc(N)cc21.O=C(O)/C=C/C(=O)O (stereo not shown) | -6.95
5 | CC(NC(=O)C12CC3CC(CC(C3)C1)C2)C(=O)N/N=C/C1=C(N2CCOCC2)C(=C\c2ccccc2)/CC1 (stereo not shown) | -2.11
6 | CCN1CCN(c2cc(C)c3cc(NC(=S)N4CCN(c5ccc(F)cc5)CC4)ccc3n2)CC1 | 9.88
7 | Cc1ccc(C(=O)c2oc3ccc(Cl)cc3c2NC(=O)CN2CCN(C)CC2)cc1 | -6.94
8 | Cc1ccc(S(=O)(=O)N2CCN(C(=O)CN3CCCSc4ccccc43)CC2)cc1 | 3.85
9 | Nc1nc(Sc2ccc(C(F)(F)F)cn2)n[nH]1 | 10.7
10 | C/C=C/c1ccc(OCC(=O)Nc2cc(C(F)(F)F)ccc2N2CCOCC2)c(OC)c1 | 15.3
11 | COc1cc(C(=O)NNC(=O)CCOc2cccc(Br)c2)cc(OC)c1OC | -4.79
12 | O=C(CCNS(=O)(=O)c1cccc2nsnc12)N1CC(=O)N(CCc2ccccc2)C(=O)C1 | -16.3
13 | CC1(C)C2CCC1(CS(=O)(=O)NCc1ccc(C(=O)O)cc1)C(=O)C2 (stereo not shown) | 15.4
14 | CN(C)S(=O)(=O)c1ccc(C(=O)NCC2CC2(Cl)Cl)cc1 (stereo not shown) | 14.4
15 | Cc1cc(-n2cccn2)ccc1CN1CCN(C2CCCC2)C(CCO)C1 (stereo not shown) | -54.2
16 | Cc1cc(C(=O)CSc2nc3ccc(Cl)cc3[nH]2)c(C)n1CC1CCCO1 (stereo not shown) | 21.2
17 | CC1CCc2c(sc(NC(=O)c3ccccc3C(=O)O)c2C#N)C1 (stereo not shown) | 10.6
18 | N#Cc1ccc(S(=O)(=O)Nc2ccc3ccccc3n2)cc1 | 6.48
19 | O=C(O)c1ccc(NC(=S)NC(=O)C(c2ccccc2)c2ccccc2)cc1 | 5.92
20 | N#C/C(=C\c1c[nH]c2ccccc12)C(=O)NC1CC1 | 13.8
21 | CC(Oc1ccc(Br)cc1)C(=O)N1CCC(C(N)=O)CC1 (stereo not shown) | -17
22 | O=C(Nc1ccc(F)cc1F)c1cccn1-c1ncc(C(F)(F)F)cc1Cl | 14.8
23 | CCOC(=O)c1cnc(-n2nc(C)cc2C)nc1Nc1cccc(C(C)=O)c1 | 7.48
24 | COc1ccc(CNCc2ccccc2[N+](=O)[O-])cc1OC.O=C(O)C(=O)O | 5.99
25 | O=C(NC(=S)Nc1ccc(CN2CCOCC2)cc1)c1ccc([N+](=O)[O-])cc1Cl | 8.62
26 | O=C(NC1CCCC1)C(c1ccc(F)cc1)N(Cc1ccc(F)cc1)C(=O)c1ccn[nH]1 (stereo not shown) | 2.87
27 | CCN(CC)C(=O)c1cn(CCC#N)nc1-c1ccc(F)cc1 | 0.959
28 | O=C(CSc1ccc2nnc(-c3cccnc3)n2n1)NCc1ccco1 | -8.86

Row | Compound | hERG current change (%, negative = inhibition) at 1uM [%]
29 | Cl.O=C(CN1CCCC1)Nc1ccc2c(c1)CCC2 | 11.1
30 | CCC1(C)Cc2c(sc3c2c(=O)n(C)c2nnc(SCC(=O)c4ccccc4)n32)CO1 (stereo not shown) | -5.17
31 | CC(C)(C)C1CCC(=NNC(=S)Nc2cccnc2)CC1 (stereo not shown) | 12
32 | Cc1ccc(CCNC(=O)CN2C(=O)COc3ccc(S(=O)(=O)N4CCCCC4)cc32)cc1 | 12
33 | Cc1cc(C)n(Cc2ccc(C(=O)NCCC3=CCCCC3)o2)n1 | 17.8
34 | CCOC(=O)C(C)Oc1cc(Cl)c(C=O)cc1OC (stereo not shown) | 0.524
35 | COCCNC(=O)C1Nc2ccc(C(F)(F)F)cc2C2C=CCC12 (stereo not shown) | 10
36 | CC1CCCN(S(=O)(=O)c2cccc([N+](=O)[O-])c2)C1 (stereo not shown) | 7.56
37 | CC(=O)Nc1ccc(NC(=O)CSC2=NS(=O)(=O)c3ccccc3N2)cc1 | 3.72
38 | FCCCOc1ccc(/C=N/OCc2c(Cl)cccc2Cl)cc1 | 2.97
39 | CCOC(=O)c1ccc(NC=C2C(=O)OC3(CCCCC3)OC2=O)cc1 | 14.8
40 | CCOC(=O)CCc1c(C)c2ccc(OC(C)C(=O)OCC)c(C)c2oc1=O (stereo not shown) | 6.26
41 | CC(C)c1ccc(N(C(=O)C(F)(F)F)C(C(=O)NC2CCCCC2)c2ccncc2)cc1 (stereo not shown) | 0.463
42 | COc1ccc(CN2C(=O)CCC2(C)C(=O)NC2CCCC2)c(OC)c1 (stereo not shown) | 2.66
43 | Cc1ccccc1NS(=O)(=O)c1cccc(-c2nnc(-c3ccccc3)o2)c1 | -18.9
44 | CCCCOc1ccc(Cn2c(=O)oc3ccccc32)cc1 | 11.6
45 | CCCCCn1c(=O)[nH]c2cc(C(=O)NCc3ccco3)ccc2c1=O | 8.89
46 | Cl.N=C(c1cccc([N+](=O)[O-])c1)N1CCCCCC1 | 5.77
47 | CCOC(=O)C(C)n1cnc2c(nnn2-c2ccccc2)c1=O (stereo not shown) | -4.87
48 | C=CCNC(=S)NNc1nc2c(c(=O)[nH]1)C1(CCCC1)Cc1ccccc1-2 | 14.1
49 | COc1cccc(Nc2nnc(SCC(=O)N3CC(=O)Nc4ccccc43)s2)c1 | 8.6
50 | CCOC(=O)C1(Cc2ccccc2)CCCN(Cc2cccc(C(C)=O)c2)C1 (stereo not shown) | 10.4
51 | Cc1nn(CC(=O)NCCc2ccccc2)c(=O)c2ccccc12 | 0.516
52 | O=C(COc1ccccc1[N+](=O)[O-])Nc1ccc2c(c1)OCO2 | 11.5
53 | C#C[C@]1(O)CC[C@H]2[C@@H]3CCC4=CC(=O)CC[C@@H]4[C@H]3CC[C@@]21C | 21
54 | Cc1ccc(S(=O)(=O)NCCC(=O)N2CCC(Cc3ccccc3)CC2)cc1 | 6.43
55 | Nc1nc2nn(-c3ccccc3)nc2c(=O)[nH]1 | 12.1
